From PubChem BioAssay AID1645887 (National Center for Advancing Translational Sciences (NCATS), 2021)
Several values for one entry are separate records, joined by “and”; a condition that tells them apart may be missing. Equal entries are not always repeated. Among all 16,000 compounds or so, about 40 (0.2%) were called active. Inconclusive results (about 1%) are left out. Calls come from the whole dose curve; as a rule, active = well fitted activation curve with a large enough effect; inconclusive = small, poorly fitted or top-dose-only effect, or another doubt; inactive = no such curve, though single readings can be large or run the other way. Some of the results follow.

Each compound was assayed against Rap guanine nucleotide exchange factor 4 (Homo sapiens) (UniProt Q8WZA2) (assay: Validation qHTS for agonist of cAMP-regulated guanine nucleotide exchange factor 4 (EPAC2)). Conditions: EPAC2 Rap1B BODIPY-GDP exchange, fluorescence; activation: stronger effect = higher value.
Outline: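 Fluorescent exchange assay: 100 nM EPAC2 with 250 nM RAP1B-BODIPY-GDP and 50 uM GDP; compound added, 5 min at room temperature, then read (ex 480/em 540 nm) every 5 min for 30 min. Normalized to 6.5 mM cAMP agonist control.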
% is set by controls: 0 for no effect and ±100 for the full control effect.
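Note: exchange makes BODIPY-GDP fluorescence drop when released from Rap1B; series mostly up to about 150 µM.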

Sequence of UniProt Q8WZA2 (Q8WZA2 whole entry, looked up): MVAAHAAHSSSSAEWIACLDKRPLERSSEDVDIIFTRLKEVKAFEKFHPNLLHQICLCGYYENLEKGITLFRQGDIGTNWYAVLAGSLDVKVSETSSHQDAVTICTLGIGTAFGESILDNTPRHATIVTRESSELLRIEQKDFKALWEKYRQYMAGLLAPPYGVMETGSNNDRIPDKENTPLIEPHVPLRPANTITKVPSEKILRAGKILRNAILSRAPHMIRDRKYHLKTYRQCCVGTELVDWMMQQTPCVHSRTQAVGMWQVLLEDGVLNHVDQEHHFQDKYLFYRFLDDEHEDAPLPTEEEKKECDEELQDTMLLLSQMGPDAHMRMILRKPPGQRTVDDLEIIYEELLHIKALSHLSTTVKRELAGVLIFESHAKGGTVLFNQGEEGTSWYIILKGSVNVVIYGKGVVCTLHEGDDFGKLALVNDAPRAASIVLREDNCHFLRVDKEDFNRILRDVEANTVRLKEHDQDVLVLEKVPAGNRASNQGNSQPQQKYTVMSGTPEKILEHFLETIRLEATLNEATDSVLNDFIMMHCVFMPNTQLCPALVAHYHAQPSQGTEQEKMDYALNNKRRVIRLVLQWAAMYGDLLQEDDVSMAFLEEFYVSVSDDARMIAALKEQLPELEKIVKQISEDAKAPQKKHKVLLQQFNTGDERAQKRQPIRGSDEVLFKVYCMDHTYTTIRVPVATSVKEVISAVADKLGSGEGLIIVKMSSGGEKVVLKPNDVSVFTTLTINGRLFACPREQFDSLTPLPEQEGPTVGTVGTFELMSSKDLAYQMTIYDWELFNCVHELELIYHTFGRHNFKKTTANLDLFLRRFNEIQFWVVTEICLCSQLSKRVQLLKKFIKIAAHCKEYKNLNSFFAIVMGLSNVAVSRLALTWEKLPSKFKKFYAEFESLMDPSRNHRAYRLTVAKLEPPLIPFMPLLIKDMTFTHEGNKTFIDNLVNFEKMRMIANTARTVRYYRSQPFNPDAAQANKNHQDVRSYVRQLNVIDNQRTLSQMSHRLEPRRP

activation, inactive:
CCN1CCc2nc(N)oc2CC1 1.41% and -23.5%
O=C(c1cccc(F)c1)N1CCC2(CCN(Cc3ccccc3)CC2)CC1 -8.74%
CCCCCCCCCCCCCC[N+](C)(C)C -17.2%
COCC(=O)N1CCC2(CC1)CCN(c1ncccn1)CC2 -4.16%
COCC(=O)N1CCC2(CC1)CCN(C(=O)Nc1cccc(F)c1)CC2 -18.6%
C=CCn1c(=O)c2c(nc(-c3ccc(S(=O)(=O)O)cc3)n2C)n(C)c1=O -1.76% and -6.26%
CCCCN1CC[C@H]2C=CC[C@@H](C(=O)NCc3ccc(OC)cc3)[C@H]2C1=O -30.5%
O=C(c1cc2ccccc2o1)N1CCN(Cc2ccccc2)CC1 3.11%
C[C@]12CC[C@@H]3c4ccc(OS(=O)(=O)O)cc4CC[C@H]3[C@@H]1CCC2=O 1.95%
O=c1c(-c2cccc(Cl)c2)nc2cncnc2n1-c1ccccc1 -1.08%
CS(=O)(=O)Nc1cccc(-c2ccc3ncnc(N4CCOCC4)c3c2)c1 -15.1%
CCC1CN(CCNC(=O)c2cccnc2C)Cc2cc(OC)ccc2O1 (centres undefined) -5.31%
CSc1ccc2cc(CNCc3ccccc3F)c(N3CCCC(CO)C3)nc2c1 (centres undefined) -6.09%
Cc1cnc2c(C)cccc2c1C -3.47%
COc1ccc(Oc2ncc3nc(C)c(=O)n(-c4ccccc4)c3n2)cc1 -8.57%
COc1cc(N)c(N)cc1OC -7.59%
Cc1ncc2c(c1CNC(=O)c1ccc3c(c1)OCO3)CCN(C(=O)c1cccc(-n3cccn3)c1)C2 4.82%
CNC1CCC(c2ccc(Cl)c(Cl)c2)c2ccccc21 (centres undefined) -16.6%
COCCn1c(=O)c(-c2ccc(OC)cc2)nc2cnc(Nc3ccccc3)nc21 -9.08%
COc1cccc(OC)c1C(=O)N[C@@H]1C(=O)N2[C@@H]1SC(C)(C)[C@@H]2C(=O)O 4.83%
O=C(c1cnccn1)N1CCC2(CCCN(Cc3nccs3)C2)CC1 -11.3%
COc1cc2c(CCNC(C)=O)c[nH]c2cc1Cl -12.1% and 5.11% and -17.2%
CC1Cc2ccccc2C[N+]1(C)CC(=O)c1cccc([N+](=O)[O-])c1 (centres undefined) -28.7%
N#CCCN1CCC(NC(=O)OCc2ccccc2)CCC1=O (centres undefined) 7.82%
CO/N=C(/C(=O)NC1C(=O)N2C(C(=O)O)=C(CSc3nc(=O)c(O)nn3C)CSC12)c1csc(N)n1 (centres undefined) -20.6%
COc1ccc(C(=O)N2CCC[C@@]3(CCN(Cc4ccncc4)C3)C2)cc1 -7.74%
COc1ccc(-c2nc3cnc(N4CCNCC4)nc3n(C)c2=O)cc1 -9.26%
O=C(CN1Cc2ccccc2OC(c2ccccc2)C1)N1CCCCC1c1cccnc1 (centres undefined) 5.71%
COC(=O)N1CCC2(CC1)CN(c1cccc(-c3ccccc3)c1)C2 -4.21%
CN1CCN(c2c(F)cc3c(=O)c(C(=O)O)cn4c3c2OCN4C)CC1 -1.3%
c1cncc(CNc2ncnc3ccc(-c4ccoc4)cc23)c1 -14.5%
CC(C)(C)CC(C)(C)c1ccc(O)c(Cc2ccc(Cl)cc2Cl)c1 -11.9%
COc1cc([C@@H]2Oc3cc([C@H]4Oc5cc(O)cc(O)c5C(=O)[C@H]4O)ccc3O[C@H]2CO)ccc1O -23.5%
COC(=O)C1CCCCN1Cc1ccc2c(c1)CN(Cc1cc(OC)c3c(c1)OCO3)CCO2 (centres undefined) -13%
CCNc1ncc2nc(C)c(=O)n(CCC#N)c2n1 -25%
CC1c2ccccc2CN1CC1=NCCN1 (centres undefined) 6.43%
CCCCCCCCCCCCCCC(F)C(=O)O (centres undefined) -11.2%
O=c1c2ccccc2oc2cc(O)c(C3COCC(CO)C(O)C(O)C3O)c(O)c12 (centres undefined) -27.8%
OC(CCCN1CCCCC1)(c1ccccc1)c1ccccc1 -11%
CCN(CC)CCOC(=O)C(c1ccccc1)c1ccccc1 -7.87%
CC(C)c1ccc2c(c1)CC[C@@H]1[C@@](C)(CN)CCC[C@]21C -14.1%
CC(C)c1c(C(=O)NCC2(N3CCCCC3)CCCC2)cnn1-c1nccc(-c2ccco2)n1 4.29%
Cc1cc2nc(N3CCC(NC(C)c4nc(-c5ccccn5)no4)CC3)nc(C)c2cc1C (centres undefined) -5.38%
CN(Cc1ccco1)c1nc(-c2cccnc2)nc2ccccc12 -0.195%
Nc1nc2c([nH]c(=O)n2C2OC(CO)C(O)C2O)c(=O)[nH]1 (centres undefined) 0.207%
CCOC(=O)c1ccc(N)cc1 -7.85% and -1.2%
Cc1ccc2c(C)ccnc2c1 -12%
CCC1(C2CCN(C(=O)c3ccccc3Cl)CC2)NC(=O)N(CCc2scnc2C)C1=O (centres undefined) -2.29%
CC[N+](CC)(CC)CC(=O)Nc1c(C)cccc1C -6.22% [middle of 4 runs]
COc1ccc2[nH]cc(CCNc3cc(-c4c(C)noc4C)ncn3)c2c1 -7.83%
COc1ncc2ncc(=O)n(Cc3cccs3)c2n1 -7.46%
CC(O)(COc1ccccc1)c1ccc2c(c1)CN(Cc1cn[nH]c1-c1ccc(F)cc1)CCO2 (centres undefined) -10.5%
Cc1ccc(C(=O)N(Cc2cc3cccc(C)c3nc2N2CCC(O)CC2)C2CC2)cc1 10.8%
COC(=O)C1CCN(Cc2ccc3c(c2)CN(C(=O)C2Cc4ccccc4O2)CCO3)CC1 (centres undefined) -18.6%
COC(=O)N1c2ccccc2C23[C@@H]4CN5CCC[C@]6(CCC12C(O)(C6)C4=O)[C@H]53 -15%
COc1ccc(CN2CCN(C(C)=O)CC2)cc1OC1CCN(C(=O)c2ccc3ccccc3n2)CC1 -0.653%
CCCC(CCC)C(=O)OC1C[C@H]2CC[C@@H](C1)[N+]2(C)C (some centres undefined) -7.11% and -2.89%
CC(N)=NCCC[C@H](N)C(=O)O -2.7%
Cc1noc(C)c1C(=O)N1CCC2(CCCN(C(=O)Nc3ccccc3)C2)CC1 -16.4%
CNC(=O)[C@H]1O[C@H](n2cnc3c(NCc4cccc(I)c4)nc(Cl)nc32)[C@@H](O)[C@@H]1O -24.9%
COc1ccc(CN([C@H](C)CO)S(=O)(=O)N(Cc2ccccc2)[C@H](CO)C(C)C)cc1 -34.4%
Cc1ccc(C(=O)C[n+]2cccc3cccc(O)c32)cc1 -30%
Cc1ncc2c(c1CNC(=O)/C=C/c1cccs1)CCN(C(=O)c1c(C)noc1C)C2 -12.1%
CCOC(=O)/C=C1\CN(Cc2cc(OC)c(OC)c(OC)c2)S(=O)(=O)c2ccc(C(F)(F)F)cc21 -39%
Cc1oc(-c2ccccc2NS(C)(=O)=O)nc1CN(C)Cc1ccc(Cl)cc1 -2.96%
C[C@H]1CC[C@@H]2N(C1)C[C@H]1[C@@H]3C[C@H]4[C@@H](C/C(=N\O)[C@H]5C[C@@H](O)CC[C@@]54C)[C@@H]3CC[C@H]1[C@]2(C)O -15.3%
O=C(Nc1cc(C(=O)Nc2ccc(S(=O)(=O)O)cc2S(=O)(=O)O)cc(C(=O)Nc2ccc(S(=O)(=O)O)cc2S(=O)(=O)O)c1)Nc1cc(C(=O)Nc2ccc(S(=O)(=O)O)cc2S(=O)(=O)O)cc(C(=O)Nc2ccc(S(=O)(=O)O)cc2S(=O)(=O)O)c1 14.4%
COc1cccc(-c2nc(NC3CCNCC3)c3ccccc3n2)c1 -15%
COc1cc(-c2ccc(=O)[nH]n2)ccc1OC(F)F -7.78% and 6.65% and -7.81%
COc1ccc(C(=O)NCc2nnc(SC)n2-c2ccccc2C)c(OC)c1OC -10.3%
C(=C\c1ccncc1)/c1ccccc1 -2.08% and -21.7%
N[C@H](CS)C(=O)O 0.245%
CN(C)C(=O)c1ccc(-c2cncnc2NCc2cccnc2)cc1 -2.25%
CS(=O)(=O)N1CCC[C@@]2(CCN(c3ccncc3)C2)C1 -0.943%
COc1cccc(CN2c3ccc(Br)cc3C(=O)CS2(=O)=O)c1 -1.56%
CN(C)c1ccc(/C=[N+]2\C(=O)CC(=O)NC2=O)cc1 -2.31%
COc1ncc2nc(-c3ccccc3)c(=O)n(CCC#N)c2n1 0.0839%
CCCCC1(COC(=O)CCC(=O)O)C(=O)N(c2ccccc2)N(c2ccccc2)C1=O -13.7% and -12%
O=c1c(-c2cccc(Cl)c2)nc2cncnc2n1Cc1ccc(F)cc1 -6.43%
CC(C)c1ccc(Cn2ccc3c4c(N)nc(NC5CC5)nc4ccc32)cc1 -30.5%
COc1ccccc1CN1CCC2(CC1)CCN(S(=O)(=O)c1ccccc1)CC2 -6.3%
COc1cc(NC(C)CCCN)c2ncccc2c1 (centres undefined) 5.22% and -2.74%
O=c1[nH]c(=O)n([C@H]2C[C@H](O)[C@@H](CO)O2)cc1Br 6.47% and -2.95% and -9.13%
COc1ccc(/C(=C\C(=O)O)c2nccc3cc(OC)c(OC)cc23)cc1OC -12.7%
